Measured values reported in patent publication US5538947A, “Growth inhibitory factor” (Takeda Chemical Industries, Ltd., priority 1992, dated 1996).

System: cells prepared from cerebral cortices of neonatal rats
Experiment: Assay of neural growth inhibitory activity (MAP2 ELISA)
Assay type: cell-based
Conditions: neonatal rat cerebral cortex cells, serum-free MEMN2 with 125 μg/ml Alzheimer's disease brain extract, 5 days at 37° C., anti-MAP2 ELISA; FIG. 6
Protocol: 1.7×10^4 cells prepared from cerebral cortices of neonatal rats were seeded in a 6 mm microplate coated with gelatin-polyornithine. Each of the peptides obtained in Example 1 was added to serum-free medium MEMN2 (prepared by adding insulin, transferrin, putrescine, progesterone and sodium selenite to Eagle's medium) containing 100 μl of an aqueous solution of 125 μg/ml of Alzheimer's disease brain extract and fed for 5 days at 37° C. in a 5% carbon dioxide gas incubator. After fixing with para-formaldehyde and a solution of 90% methanol and 5% acetic acid, the amount of microtubule-bound protein 2 (MAP2: a protein specifically produced by neural cells) was determined by ELISA using anti-MAP2 antibody (Amersham). On the other hand, as control experiment, the amount of MAP2 was determined in the cultured cells only with Alzheimer's disease brain extract. Inhibitory activity was expressed by the percentage reduction rate (%) of the amount of MAP2.

Sequence	neural growth inhibitory activity (percentage reduction rate of the amount of MAP2)
MDPETCPCPSGGSCTCADSCKCEGCK (MDPETCPCPSGGSCTCADSCKCEGCK) [TG3, trypsin-digested fragment of GIF (residues 1-26)]	clearly demonstrated neural growth inhibitory activity
TCPCPSGGSC TCADSCKCE (TCPCPSGGSCTCADSCKCE) [VG2, peak of the V8 protease digest of TG3; 5th to 23rd residues of GIF]	clearly demonstrated neural growth inhibitory activity
